In PubChem BioAssay AID588692 (Broad Institute, 2011):
About 830 (0.23%) of roughly 360,000 compounds were called active. The shares of active, inactive and inconclusive entries below differ from those in the screen.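 How the source made its calls: active means mean luciferase reporter signal, scaled so untreated is 0 and the glycosylation-blocking control 100, at or above a set limit in every replicate; inconclusive means mean reaches the limit but not every replicate does; inactive means mean below the limit.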

Test: increase of ERlucT glycosylation luciferase signal, primary screen, N-linked glycosylation inhibitor project, D54 ERlucT cells, luminescence, set 2 (AID 588692);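 further: luciferase carries N-glycosylation sites so blocking glycosylation raises the light; 0% = median of neutral control wells and 100% = median of 100 nM tunicamycin wells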
Settings: 24 h, at 12.5 µM, active compounds read high, percent of 100 nM tunicamycin response

Structure (SMILES)	reporter increase
COc1cc(O)c(C(=O)/C=C/c2ccccc2)c(OC)c1	active: 41.7%
Cc1cc(=O)[nH]c(N=N/C(=N/Nc2ccc(O)cc2)c2ccccc2)n1	inactive: -0.239%
COc1cc(C(=O)Nc2cc(C(F)(F)F)ccc2N2CCOCC2)ccc1OCC(=O)N1CCOCC1	inconclusive: 27.1%
Cc1cc(N/N=C/c2ccc([N+](=O)[O-])o2)nc2ccccc12	inconclusive: 26.1%
COc1cccc(C(=O)C(C#N)=C(SC)SC)c1	inconclusive: 31%
Cc1ccc(C(=O)/C=C/c2ccc3ncccc3c2)cc1	inconclusive: 40%
Cc1ccccc1NC(=O)OCc1ccccc1	inactive: -0.858%
COC(=O)c1ccc(NS(=O)(=O)c2cc(-c3cc(C)no3)ccc2OC)cc1	inconclusive: 26.7%
CCCOc1ccc(C(=O)N(CC(C)C)c2c(N)n(Cc3ccccc3)c(=O)[nH]c2=O)cc1	inactive: 1.45%
CC(=O)c1cccc(Nc2cc(C)nc3c(C)cc(C)cc23)c1	active: 67.4%
O=C(N=C1SC2CS(=O)(=O)CC2N1c1cccc(Cl)c1)C1CCCO1 (stereo not drawn)	inactive: 3.41%
CC(C)N1C(=O)/C(=C/c2nc3ccccc3c(=O)n2-c2ccccc2)c2ccccc21	inconclusive: 27.9%
COc1ccc(C=CC(=O)c2ccc3cc(OC)c(OC)cc3c2)cc1OC	inconclusive: 30%
CCOC(=O)c1[nH]c(C)c(C(=O)c2ccc(C)cc2)c1C	inconclusive: 27.3%
COc1ccc(OC)c(Nc2nc(-c3sc(N)nc3C)cs2)c1	inactive: 3.22%
COC(=O)CNC(c1ccccc1)c1cc(C)ccc1NC(=O)CNC(=O)OCc1ccccc1 (stereo not drawn)	inactive: -2.26%
C/C(=N\O)C(=O)C(CN1CCCCC1)CN1CCCCC1	inconclusive: 25.3%
CCOc1ccccc1N1Cc2ccccc2C1	inactive: -0.4%
CN(C)c1ccc(N=c2sc3ccccc3n2C)cc1	inactive: -1.63%
COc1ccc(-n2c(C)c([N+](=O)[O-])c3ccc(O)c(CN(C)C)c32)cc1	inactive: -11.6%
CCOC(=O)N1CCN(C(=O)c2cc(-c3ccncc3)nc3ccccc23)CC1	inconclusive: 26%
CC(C)CC(NC(=O)c1ccc(Cl)cc1)C(=O)OCC(=O)c1ccc2c(c1)NC(=O)CO2 (stereo not drawn)	active: 60.2%
O=[N+]([O-])c1cc([N+](=O)[O-])c2cc3ccccc3nc2c1	inconclusive: 34.7%
Cc1ccc(C)c(Cn2nnc3c(=O)[nH]c(C4CCN(C(=O)c5cccs5)CC4)nc32)c1	inconclusive: 26.3%
Cn1c(NCCN2CCCC2)nc2cc(-c3ccccc3)sc2c1=O	inactive: 17.9%
COc1ccc(C(=O)Nc2sc3c(c2C#N)CCN(C(C)=O)C3)cc1	inactive: 12.2%

Structure (SMILES)	reporter increase
O=c1c2ccccc2nc(SCc2nc3ccccc3s2)n1CCCO	inactive: -6.76%
COC(C/C=C/C(=O)[C@H](C)OCc1ccccc1)OC	inconclusive: 25.2%
CCc1nc2ccc(C(=O)NCCc3c[nH]c4ccccc34)cn2c1N(C=O)CCC(C)C	active: 64.4%
CC(C)n1c(O)c(/C=C2\C=Nc3ccccc32)sc1=Nc1ccccc1	inactive: -1.48%
NC(=O)c1cccc(-c2ccnc3c2CC(C(=O)NCc2ccccc2)O3)c1 (stereo not drawn)	inconclusive: 26.2%
O=C(NC(=C(Cl)Cl)S(=O)(=O)c1ccc(Cl)cc1)c1ccccc1	active: 58.7%
CCNC(=O)COc1ccc(-c2ccccc2)cc1	inactive: -0.556%
Cc1cc(NC(=O)CN2C(=O)NC3(CCCCCC3)C2=O)ccc1Br	inconclusive: 26.4%
CC(=O)Nc1ccc(C(=O)N/N=C/c2ccccc2OCc2ccccc2)cc1	active: 41%
CCN1/C(=C/c2ccc3cccc(C)c3[n+]2CC)Sc2ccccc21	inconclusive: 28.4%
COc1cc(Br)c(/C=C/c2ccc3cccc(O)c3n2)cc1OC	inconclusive: 28.5%
O=C(/C=C/c1cccnc1)c1ccc(F)c(F)c1	inconclusive: 26.4%
N#C/C(=C/c1ccc(N2CCCCCC2)o1)c1cccc(F)c1	inactive: 14.3%
Cn1c(=O)n(C)c2cc(NS(=O)(=O)c3ccccc3)ccc21	active: 34%
COc1ccc(-c2cc(-c3ccc(O)cc3)nc(N)c2C#N)cc1OC	active: 26.8%
O=C1[C@H]2[C@@H](c3ccc(F)cc3)N3C(=O)N(c4cccc(Cl)c4)C(=O)[C@@]3(Cc3ccccc3)[C@H]2C(=O)N1C1CCCCC1	active: 72.2%
O=C(CNC(=O)c1ccco1)N/N=C/c1ccccc1[N+](=O)[O-]	inactive: 1.42%
Cc1cc(C)nc(N(C#N)Cc2ccc([N+](=O)[O-])cc2)n1	inactive: -0.481%
COc1cc(C(=O)NC(=S)N(CCc2ccccc2)CCc2ccccc2)cc(OC)c1OC	inactive: 6.87%
COc1ccc(-c2cc(C)no2)cc1S(=O)(=O)Nc1ccccc1	active: 44.8%
Cc1ccc(C(=O)NCc2nnc(SCC(=O)NC(C)c3ccccc3)n2C)cc1 (stereo not drawn)	inconclusive: 32.3%
COC(=O)CCC(=O)NC(=S)Nc1sc(C)c(C)c1C(N)=O	inconclusive: 26.2%
CC(C)Sc1ccccc1C(=O)Nc1ccc2c(c1)n(C)c(=O)n2C	active: 34.5%
CCc1cc(SC#N)cc(CC)c1NC(=O)CCl	inconclusive: 28.1%
CCOC(=O)C1CCN(C(=O)COC(=O)c2ccc([N+](=O)[O-])o2)CC1	inactive: 0.428%
Cc1ccc2c(c1)C(=O)N1[C@H]3c4cc(Br)ccc4OC[C@@H]3[C@H](c3ccccc3)[C@]1(C)C(=O)N2	active: 26.7%

Structure (SMILES)	reporter increase
COc1ccc(CCn2c(=N)c(C(=O)NCC3CCCO3)cc3c(=O)n4cccc(C)c4nc32)cc1OC (stereo not drawn)	inconclusive: 31.5%
Cc1ccc(C)c(C(O)c2ncc(-c3cccc(F)c3)[nH]2)c1 (stereo not drawn)	inconclusive: 50.8%
CN(C)Cc1c(C(=O)N/N=C/c2ccccc2OCc2c(F)cccc2Cl)nnn1-c1nonc1N	inconclusive: 26.5%
O=C1CCCC2=C1C1(CCCCC1)N=C(Nc1nc3ccccc3o1)N2	active: 47.1%
N#C/C(=C\c1ccc([N+](=O)[O-])o1)C(=O)Nc1ccc(F)cc1	inconclusive: 26.1%
COc1cc2nc(NC(=O)c3ccco3)sc(=O)c2cc1OC	inconclusive: 29.5%
NNC(=O)c1[nH]c2ccc(Cl)cc2c1-c1ccccc1	inconclusive: 26.7%
Cc1ccccc1NCC(=O)N/N=C/C(Br)=C/c1ccccc1	inconclusive: 27.7%
COc1cc2cc(C(c3nnnn3C(C)(C)C)N3CCc4ccccc4C3)c(=O)[nH]c2cc1OC (stereo not drawn)	inconclusive: 25.2%
COc1ccc(C2C(C(=O)c3ccco3)=C(O)C(=O)N2CC2CCCO2)cc1OC (stereo not drawn)	inactive: 1.36%
Cc1nnc2n(c1=O)N=C(c1ccc(Cl)cc1)CS2	inconclusive: 29.2%
Cn1cnc([N+](=O)[O-])c1Sc1nc2ccccc2[nH]1	active: 29.3%
Cc1ccc(-n2c(SCC(=O)NCCC3=CCCCC3)nc3n[nH]c(C)c3c2=N)cc1Cl	inconclusive: 27.4%
CC(CC(=O)Nc1ccc2c(c1)c(=O)n(C)n2-c1cccs1)c1ccccc1 (stereo not drawn)	inconclusive: 27.2%
O=C(COC(=O)c1cccs1)c1ccc2ccccc2c1	inactive: -0.666%
COc1ccc(N2CCc3c(C)nc4c(OC)cc(OC)cc4c32)cc1	inconclusive: 25.1%
CN(Cc1ccsc1)C(=O)CCc1nnc(CCCc2ccccc2)o1	inactive: -0.232%
COC(=O)C(Sc1ccc(Cl)cc1)C1SC(=S)N(Cc2ccccc2)C1=O (stereo not drawn)	inconclusive: 26.5%
COc1ccc(-n2cccc2/C=C/[N+](=O)[O-])cc1	inconclusive: 37.8%
CCN1/C(=C/c2ccc3cc(C)ccc3[n+]2CC)Sc2cc(C)ccc21	inconclusive: 26.9%
Cn1c2ccccc2c(=O)c2ccc(C#CC3(N)CCCCC3)cc21	inconclusive: 28.9%
NNC(=O)c1oc2nc(-c3ccco3)cc(-c3ccco3)c2c1N	inconclusive: 28.1%
Cc1ccc(NC(=O)c2ccc([N+](=O)[O-])o2)cc1C	inconclusive: 27.8%
Cc1ccc(N2CCN(C3=NC(=O)/C(=C\c4cn[nH]c4-c4ccccc4)S3)CC2)cc1	inconclusive: 28.7%
COC(=O)c1cc(=O)n(CCc2ccc(OC)c(OC)c2)c(=Nc2ccc(F)c(Cl)c2)s1	inconclusive: 28.6%
CC1=NN(c2ccc(C)cc2)C(=O)/C1=C\C=C\c1ccccc1	inconclusive: 29.1%
